This note sets out measurements from the supplement of paper PMC8183993.

Structures are written as SMILES. Values joined by “and” are separate entries in the source; they are usually repeats but may differ in a detail not shown here. Equal entries are not always repeated. Structures can show the parent of a compound that is named as a salt. ± gives the standard deviation of the averaged measurements. In all, about 3,100 compounds were measured (“mean cytoplasmic OPP incorporation (global translation) relative to DMSO”: median about 100, lowest 2% from about 56 on). The list shows a part of the results.

This assay deals with U2OS. In words: mean cytoplasmic OPP incorporation (global translation) relative to DMSO (% of DMSO); higher = more protein synthesis. The conditions noted are these: 10 µM; 24 h. How it is done:
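Primary image-based screen in U2OS cells: compounds at 10 uM for 24 h, then a 1 h o-propargyl-puromycin (OPP) pulse, click labelling, and high-throughput microscopy. Mean cytoplasmic OPP intensity and nuclei count were normalised to DMSO wells within each plate (DMSO = 100) and averaged over triplicate plates.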
In the case of `CC[N+](C)(CC)CCOC(=O)C1c2ccccc2Oc2ccccc21` [Methantheline bromide], the “mean cytoplasmic OPP incorporation” value was found to be 108. Then `CC(C)(O)[C@H]1CC[C@@](C)([C@H]2[C@@H](O)C[C@@]3(C)[C@@H]4C[C@H](O[C@@H]5O[C@H](CO)[C@@H](O)[C@H](O)[C@H]5O)[C@H]5C(C)(C)[C@@H](O[C@@H]6OC[C@@H](O)[C@H](O)[C@H]6O)CC[C@@]56C[C@@]46CC[C@]23C)O1` [Astragaloside A], with 103; and `NNCCc1ccccc1` [Phenelzine sulfate], with 75. Take `C=C1CC[C@H](O)C/C1=C/C=C1\CCC[C@]2(C)[C@@H]([C@H](C)CCCC(C)C)CC[C@@H]12` [Vitamin D3 (Cholecalciferol)]: the “mean cytoplasmic OPP incorporation” value worked out at 99.5. Then `CC(=O)Nc1ccc(C(=O)Nc2ccccc2N)cc1`, with 57.3 ± 33; and `COc1cc2c(Nc3ccc(NC(=O)c4ccccc4)cc3)ncnc2cc1OCCCN1CCOCC1`, with 124 and 114; and `O=C(O)[C@]1(Cc2cccc(Nc3nccs3)n2)CC[C@@H](Oc2cccc(Cl)c2F)CC1`, with 96.6 ± 7. Turning to `COc1cc2c(NC3CCN(C(C)C)CC3)nc(C3CCCCC3)nc2cc1OCCCN1CCCC1`, the “mean cytoplasmic OPP incorporation” value came out at 99.4. Then `CC(Cc1cccc(C(F)(F)F)c1)NCCOC(=O)c1ccccc1` (stereo not drawn) [Benfluorex hydrochloride], with 105; and `CC(=O)S[C@@H]1CC2=CC(=O)CC[C@]2(C)[C@H]2CC[C@@]3(C)[C@@H](CC[C@@]34CCC(=O)O4)[C@H]12` [Spironolactone], with 99.666 ± 0.067. Then `C#Cc1cccc(Nc2ncnc3cc(OC)c(OCCCCCCC(=O)NO)cc23)c1`, with 87.3 ± 11; and `CCCc1cc(C(N)=S)ccn1` [Prothionamide], with 101; and `CO[C@H]1/C=C/O[C@@]2(C)Oc3c(C)c(O)c4c(O)c(c(/C=N/N5CCN(C6CCCC6)CC5)c(O)c4c3C2=O)NC(=O)/C(C)=C\C=C\[C@H](C)[C@H](O)[C@@H](C)[C@@H](O)[C@@H](C)[C@H](OC(C)=O)[C@@H]1C` [Rifapentine], with 115.

For the compound `CC(C)(C)NC[C@@H](O)COc1cccc2c1CCCC2=O` [(+) -Levobunolol hydrochloride], the “mean cytoplasmic OPP incorporation” value turned out to be 104. Then `N=C(N)NC(=N)NCCc1ccccc1` [Phenformin hydrochloride], with 99.4 ± 7.9.

As for `COC(=O)[C@@H](N)CSC/C=C(\C)CC/C=C(\C)CCC=C(C)C` [S-Farnesyl-L-cysteine methyl ester], the “mean cytoplasmic OPP incorporation” value was determined as 95.9.

For `CN1CCC(=C2c3ccccc3C=Cc3ccccc32)CC1` [Cyproheptadine hydrochloride], the “mean cytoplasmic OPP incorporation” value was determined as 101 ± 4.8. Then `CNC1CCCN(c2c(F)cc3c(=O)c(C(=O)O)cn(C4CC4)c3c2OC)C1` (stereo not drawn) [Balofloxacin], with 101; and `C[C@H]1O[C@H](O[C@H]2[C@H](O)[C@@H](O)[C@@H](O[C@H]3[C@H](O)[C@@H](O)C(O)O[C@@H]3CO)O[C@@H]2CO)[C@H](O)[C@@H](O)[C@@H]1N[C@H]1C=C(CO)[C@@H](O)[C@H](O)[C@H]1O` (stereo partly drawn) [Acarbose], with 102 ± 2.2.

In the case of `CC(C)(C=O)Cc1cc(C(C)(C)C)c(O)c(C(C)(C)C)c1`, the “mean cytoplasmic OPP incorporation” value turned out to be 98.4. With `Nc1ccc(CC(CC(=O)O)C(=O)O)cc1` [4-Amino-D, L-benzylsuccinic acid], the “mean cytoplasmic OPP incorporation” value was 104. Then `CCCCN1CCCC1CNC(=O)c1cc(C#N)c2ccccc2c1OC` (stereo not drawn) [Nafadotride], with 100.

With `CC(=O)Nc1nc(C)c(-c2ccc(Cl)c(S(=O)(=O)NCCO)c2)s1`, the “mean cytoplasmic OPP incorporation” value was found to be 90.6. Then `CN(Cc1ccccc1)C(=O)[C@H](Cc1ccc2ccccc2c1)NC(=O)[C@@H]1CCCN1C(=O)Nc1ccccc1[N+](=O)[O-]`, with 108; and `OC[C@H]1O[C@@H](Oc2cc(O)cc(/C=C/c3ccc(O)cc3)c2)[C@H](O)[C@@H](O)[C@@H]1O` [Polydatin (Piceid)], with 96.3; and `O=c1c(O)c(-c2ccc(O)cc2O)oc2cc(O)cc(O)c12` [Morin hydrate (Aurantica)], with 101. Then `CC(/C=C/c1cccc(Oc2ccc(F)cc2)c1)N(O)C(N)=O` (stereo not drawn), with 93; and `COc1ccc(C2CNC(=O)C2)cc1OC1CCCC1` (stereo not drawn) [Rolipram], with 100 ± 7.2. Then `Nc1c(S(=O)(=O)O)cc(Nc2cccc3ccccc23)c2c1C(=O)c1ccccc1C2=O`, with 97.9; and `CCCCC(F)(F)[C@@]1(O)CC[C@H]2[C@@H](CC(=O)[C@@H]2CCCCCCC(=O)O)O1` [Lubiprostone (Amitiza)], with 111. In the case of `COc1ccc(F)c(F)c1C(=O)c1cnc(NC2CCN(S(C)(=O)=O)CC2)nc1N`, the “mean cytoplasmic OPP incorporation” value came out at 61.4 ± 14. Then `O=C1OCCN1/N=C/c1ccc([N+](=O)[O-])o1` [Furazolidone], with 78.2. Then `CCOC(=O)[C@H](CCc1ccccc1)N[C@H]1CS[C@H](c2cccs2)CN(CC(=O)O)C1=O` [Temocapril HCl], with 101; and `c1ccc([C@H]2CN3CCSC3=N2)cc1` [Levamisole hydrochloride], with 93.9. Then `c1ccc([C@H]2CN3CCSC3=N2)cc1` [Levamisole HCl], with 107; and `O=C1C[C@@H](c2ccc(O)cc2)Oc2cc(O)cc(O)c21` [Naringenin], with 107. Take `CCC(=O)O[C@]1(C(=O)CCl)[C@@H](C)C[C@H]2[C@@H]3CCC4=CC(=O)C=C[C@]4(C)[C@@]3(F)[C@@H](O)C[C@@]21C` [Clobetasol propionate]: the “mean cytoplasmic OPP incorporation” value is 105 ± 2.9. Then `Cc1ccc([N+](=O)[O-])cc1S(=O)(=O)N(C)C`, with 94.1; and `Cc1c(O)c(=O)ccn1C` [Deferiprone], with 101. For `O=S(=O)(O)c1cc(O)ccc1O` [Ethamsylate], the “mean cytoplasmic OPP incorporation” value came out at 99. Regarding `CC(=O)O[C@]1(C(C)=O)CC[C@H]2[C@@H]3C[C@H](C)C4=CC(=O)CC[C@]4(C)[C@H]3CC[C@@]21C` [Medroxyprogesterone acetate], the “mean cytoplasmic OPP incorporation” value came out at 98.4. Then `CC(C)NCC(O)c1ccc2ccccc2c1` (stereo not drawn) [Pronethalol hydrochloride], with 99.3 ± 1.2; and `CCCc1c(OCC(O)COc2ccc3c(=O)cc(C(=O)O)oc3c2CCC)ccc(C(C)=O)c1O` (stereo not drawn), with 100.

With `COc1cc2c(Oc3ccc4[nH]c(C)cc4c3F)ncnc2cc1OCCCN1CCCC1` [Cediranib (AZD2171)], the “mean cytoplasmic OPP incorporation” value was 98.1.

Regarding `CNc1cc(OC)c(C(=O)NC2CCN(Cc3ccccc3)C2C)cc1Cl` (stereo not drawn) [Nemonapride], the “mean cytoplasmic OPP incorporation” value came out at 99.3.

As to `CN(C)c1nc(N(C)C)nc(N(C)C)n1` [Altretamine], the “mean cytoplasmic OPP incorporation” value is 98.8. Then `N[C@H](C(=O)O)[C@H](O)c1ccc(O)c(O)c1` [Droxidopa (L-DOPS)], with 99.2; and `Nc1nc2n[nH]nc2c(=O)[nH]1` [Azaguanine-8], with 60.2; and `COc1ccccc1OCC(O)CN1CCN(CC(=O)Nc2c(C)cccc2C)CC1` (stereo not drawn) [Ranolazine], with 104. Then `O=[N+]([O-])c1cccc2cn[nH]c12` [7-Nitroindazole], with 99.4; and `COc1cc([C@@H]2c3cc4c(cc3[C@@H](O[C@@H]3O[C@@H]5CO[C@@H](C)O[C@H]5[C@H](O)[C@H]3O)[C@H]3COC(=O)[C@H]23)OCO4)cc(OC)c1O` [Etoposide], with 87 ± 14; and `COc1cc([C@@H]2c3cc4c(cc3[C@@H](O[C@@H]3O[C@@H]5CO[C@@H](C)O[C@H]5[C@H](O)[C@H]3O)[C@H]3COC(=O)[C@H]23)OCO4)cc(OC)c1O` [Etoposide (VP-16)], with 84.2. Then `CCCNCC(O)COc1ccccc1C(=O)CCc1ccccc1` (stereo not drawn) [Propafenone], with 106; and `CCCNCC(O)COc1ccccc1C(=O)CCc1ccccc1` (stereo not drawn) [Propafenone hydrochloride], with 104; and `NC(=O)C(c1ccccc1)(c1ccccc1)[C@@H]1CCN(CCc2ccc3c(c2)CCO3)C1` [Darifenacin hydrobromide], with 107.

As to `O=C1c2ccc(Nc3ccc(F)cc3F)cc2CCc2ccc(OC[C@H](O)CO)cc21` [Skepinone-L], the “mean cytoplasmic OPP incorporation” value amounted to 101. Then `CCn1cc(-c2cccc(C(F)(F)F)c2)c2sc(C(=N)NC3CCS(=O)(=O)CC3)cc2c1=O`, with 101; and `C[C@H]1C[C@@H]2[C@H]([C@@H](O)C[C@@]3(C)[C@H]2CC[C@]3(O)C(=O)CO)[C@@]2(C)C=CC(=O)C=C12` [Methylprednisolone, 6-alpha], with 104; and `C[C@H]1C[C@@H]2[C@H]([C@@H](O)C[C@@]3(C)[C@H]2CC[C@]3(O)C(=O)CO)[C@@]2(C)C=CC(=O)C=C12` [Methylprednisolone], with 115. Then `O=C(NCCO)c1cccc(-c2cc(Nc3ccc(OC(F)(F)F)cc3)ncn2)c1`, with 97.8; and `COCC[n+]1c2c(n(Cc3cnccn3)c1C)C(=O)c1ccccc1C2=O`, with 35. Then `CCN(CC)CCc1nc(-c2ccccc2)no1` [Oxalamine citrate salt], with 104. As to `CNCC(O)c1ccc(OC(=O)C(C)(C)C)c(OC(=O)C(C)(C)C)c1` (stereo not drawn) [Dipivefrin hydrochloride], the “mean cytoplasmic OPP incorporation” value was 98.9. Then `CC(C)NCC(O)c1ccc(O)c(O)c1` (single isomer, unassigned; (+)) [(+)-Isoproterenol (+)-bitartrate salt], with 91.3; and `COc1ccc([C@]2(C#N)CC[C@@H](C(=O)O)CC2)cc1OC1CCCC1`, with 104; and `O=S(=O)(O)NC1CCCCC1` [Cyclamic  acid], with 106. As for `CC(C)NC[C@@H](O)COc1cccc2ccccc12` [(R)-(+)-Propranolol hydrochloride], the “mean cytoplasmic OPP incorporation” value stood at 103. Turning to `CC(C)NC[C@@H](O)COc1cccc2ccccc12` [(R)-Propranolol hydrochloride], the “mean cytoplasmic OPP incorporation” value was determined as 112. Regarding `COc1cc2c(cc1C(F)(F)F)N(C(=O)Nc1cc(F)cc(-c3cccnc3)c1)CC2`, the “mean cytoplasmic OPP incorporation” value stood at 121. Then `CCC(C)N(C)C(=O)c1cc2ccccc2c(-c2ccccc2Cl)n1` (stereo not drawn), with 108. Consider `Nc1nc2ccc(Cl)cc2c2nc(-c3ccco3)nn12`, for which the “mean cytoplasmic OPP incorporation” value was 97.9. Then `CC(NCCC(c1ccccc1)c1ccccc1)c1ccccc1` (stereo not drawn) [Fendiline hydrochloride], with 112; and `Cc1cc2c(F)c(Oc3ncnn4cc(OC[C@@H](C)OC(=O)[C@H](C)N)c(C)c34)ccc2[nH]1`, with 85.769 ± 0.062.
